Assay results taken from PubChem BioAssay AID1963843 (Molecular Pharmacology Branch, DTP, NCI, 2024).
Not every entry of the source has a single result; some have several. This list holds those alone. An entry can have further records. The values listed for one entry are repeats across runs, samples, wells, individuals or studies. Marks such as [2022-09] give the month of the run.

Tested on: 616215-338-R-J1-PDC complex spheroid viability
Test: Anticancer human tumor 616215-338-R-J1-PDC patient-derived colon adenocarcinoma cell line growth inhibition [POLQ]
Settings: compound alone
Method: Multicellular complex tumor spheroid response to Polymerase (POL) inhibitors (novobiocin, ART-558, RP6685) in combination with a variety of drugs and investigational agents in selected tumor cell lines
The POL inhibitors (novobiocin, ART-558, and RP6685) were evaluated both individually and in combination with standard of care and investigational anticancer small molecules within a complex spheroid model of solid tumors. . Complex spheroids include a stromal component modeled by human endothelial cells (HUVEC) and fibroblasts modeled by human mesenchymal stem cells (MSCs). The concentration ranges selected for each drug and investigational agent were based upon clinically achievable concentrations if the clinical Cmax of the agent was known.
Compounds. The drugs and investigational agents: novobiocin (NSC847541), ART-558 (NSC835418), RP-6685 (NSC848927), peposertib (NSC802822), ceralasertib (NSC780249), elimusertib (NSC800525), camonsertib (NSC841442), AZD-1390 (NSC803789), olaparib (NSC753686), talazoparib (NSC767125), rucaparib (NSC756644), sotorasib (NSC818433), MRTX-1133 (NSC836407), SN-38 (NSC673596), topotecan (NSC609699), epotoside (NSC141540), doxorubicin (NSC123127), gemcitabine (NSC613327), 5-fluorouracil (NSC19893), paclitaxel (NSC125973), vemurafenib (NSC761431), MSA-2 (NSC828583), SN-011 (NSC837082), adavosertib (NSC754352), prexasertib (NSC758257), carboplatin (NSC241240) and oxaliplatin (NSC266046), were obtained from the National Cancer Institute (NCI) Developmental Therapeutics Program Chemical Repository (21). The FDA-approved anticancer drug set is available from the Developmental Therapeutics Program at https://dtp.cancer.gov/organization/dscb/obtaining/. […] The stock solutions were prepared in dimethyl sulfoxide (DMSO, Sigma-Aldrich, St. Louis, MO, cat. D2650), except for the platinum compounds which were prepared in saline (Quality Biological, Gaithersburg, MD, cat. 114-055-101), at 800-fold the tested concentration and stored at -70 degrees C prior to their use. All drugs and investigational agents were tested over a range starting from a high concentration at or near the clinical Cmax and decreasing in half-log increments. If the clinical Cmax for an agent had not been determined, the highest concentration tested was 10 microM, except for SN-38, which was tested at a high concentration of 1 microM.
Cell Culture. All cells were maintained in an incubator at 37 degrees C and 5% CO2 with 95% humidity. The PDC lines were cultured according to standard operating procedures established by the NCI PDMR (https://pdmr.cancer.gov). Table 3 of the manuscript, lists the cell lines along with the number of the three cell types plated to form the mct-spheroids and media for tumor cell growth. […]
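Further: spheroids exposed to compounds for one week before readout.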

Row | Structure (SMILES) | IC50
1 | O=c1[nH]cc(F)c(=O)[nH]1 | > 10 µM [2023-11] and 506 nM [2023-12]
2 | CCc1c2c(nc3ccc(O)cc13)-c1cc3c(c(=O)n1C2)COC(=O)[C@]3(O)CC | 100 nM, 96.2 nM [2023-11] and 9.77 nM [2023-12]
3 | CC1COCCN1c1cc(-c2ccnn2C)c2ccnc(-c3ccn[nH]3)c2n1 (centres undefined) | 792 nM, 2.7 µM [2023-11] and 208 nM [2023-12]
4 | CC1COCCN1c1cc(C2(O)CC3CCC(C2)O3)c2cnn(-c3ccn[nH]3)c2n1 (centres undefined) | 1.55 µM, 4.9 µM [2023-11] and 305 nM [2023-12]
